In all, about 33,000 sequences were measured (“E-score (-0.5 to 0.5)”: median about -0.032, highest 2% from about 0.36 on). This is one part of the list.

For this experiment, the target named is T1, Sko1 (UniProt Q02100).
T1 sequence: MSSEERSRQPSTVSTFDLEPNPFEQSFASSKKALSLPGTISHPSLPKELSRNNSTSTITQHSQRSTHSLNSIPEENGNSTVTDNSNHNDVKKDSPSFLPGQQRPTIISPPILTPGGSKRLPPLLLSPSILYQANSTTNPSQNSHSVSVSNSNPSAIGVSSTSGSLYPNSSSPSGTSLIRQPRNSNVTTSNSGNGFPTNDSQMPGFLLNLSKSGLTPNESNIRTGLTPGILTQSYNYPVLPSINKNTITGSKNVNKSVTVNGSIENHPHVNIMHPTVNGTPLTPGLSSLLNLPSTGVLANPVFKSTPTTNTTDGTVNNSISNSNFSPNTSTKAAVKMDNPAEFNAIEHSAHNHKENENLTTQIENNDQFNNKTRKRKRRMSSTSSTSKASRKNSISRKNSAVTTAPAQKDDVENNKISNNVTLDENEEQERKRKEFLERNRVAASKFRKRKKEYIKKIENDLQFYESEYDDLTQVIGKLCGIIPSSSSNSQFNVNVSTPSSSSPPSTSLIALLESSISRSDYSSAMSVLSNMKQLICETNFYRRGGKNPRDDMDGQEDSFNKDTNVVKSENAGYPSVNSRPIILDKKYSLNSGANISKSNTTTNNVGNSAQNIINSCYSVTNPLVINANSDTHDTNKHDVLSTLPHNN
Put plainly: PBM E-score (8-mer binding enrichment) (E-score (-0.5 to 0.5)); higher = stronger / more preferred TF binding; most listed sequences are background and not binding sites. Particulars: protein concentration: 200 nM; construct: GST-full length. The gist of the method: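 Bound GST-tagged yeast transcription factors, applied at about 100-200 nM to double-stranded universal all-10-mer Agilent arrays, were detected with fluorescent anti-GST. Scans were normalised with masliner. A modified Wilcoxon-Mann-Whitney statistic, the E-score, was assigned to each ungapped eight-base word pooled with its reverse complement by the Universal PBM Analysis Suite.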
Consider GGGAGGGA, for which the “PBM E-score” value was -0.0905.

Turning to CATAAATC, the “PBM E-score” value worked out at 0.11.

Regarding GATTTGGA, the “PBM E-score” value is -0.0652.

On to GAGTAACA, for which the “PBM E-score” value was determined as 0.0215.

ATCTTCTA: the “PBM E-score” value is 0.061.

Take AAGGGTCA: the “PBM E-score” value was -0.199.

On to ACGGAAGC, for which the “PBM E-score” value is 0.0411.

CACCCTGC: the “PBM E-score” value was -0.0877.

As for GCATTCCC, the “PBM E-score” value was -0.132.

On to TACCTCAA, for which the “PBM E-score” value amounted to 0.064.

With CGCCAGCG, the “PBM E-score” value was -0.165.

AAGGTTTA: the “PBM E-score” value was -0.0389.

For TTGTGAAA, the “PBM E-score” value came to 0.119.

ACATGATC: the “PBM E-score” value amounted to 0.181.

Consider ATATTCCC, for which the “PBM E-score” value is -0.00863.

For GAATTGCC, the “PBM E-score” value is -0.145.

With ACATACCC, the “PBM E-score” value stood at 0.0834.

With GCAAAGGA, the “PBM E-score” value was -0.0167.

Turning to ATCAACTA, the “PBM E-score” value is 0.248.

CAAGAGGA: the “PBM E-score” value turned out to be 0.0173.

Take GACCAACC: the “PBM E-score” value is -0.0838.

Take AAAGCAGA: the “PBM E-score” value was determined as 0.0185.

As to CCTTAAAG, the “PBM E-score” value was -0.05.

For ATACAGAA, the “PBM E-score” value is 0.0653.

Take CATGGCGG: the “PBM E-score” value was -0.126.

CCGTGGCG: the “PBM E-score” value was -0.153.

In the case of CATTTAGG, the “PBM E-score” value was -0.169.

For AGCTGGTG, the “PBM E-score” value is -0.171.

As to GCTTCGGA, the “PBM E-score” value was -0.0658.

In the case of CGCGGCTC, the “PBM E-score” value is -0.189.

Consider CCGTTCGA, for which the “PBM E-score” value was -0.0336.

Consider CTGCAGAA, for which the “PBM E-score” value worked out at 0.0488.

As for GATTATGA, the “PBM E-score” value is 0.203.

Take CAAGTTCA: the “PBM E-score” value was -0.00936.

As for CAGATGCA, the “PBM E-score” value was -0.168.

Regarding AACCACGA, the “PBM E-score” value was -0.0344.

CATAACCC: the “PBM E-score” value was -0.196.

Turning to AGAAACAA, the “PBM E-score” value worked out at 0.168.

Turning to CTTGCAAA, the “PBM E-score” value is -0.094.

For the sequence GAATTGTA, the “PBM E-score” value was 0.0665.

As for CCCGCCGA, the “PBM E-score” value was -0.214.

Take ACATTAAG: the “PBM E-score” value was 0.141.

With ACCGGTTA, the “PBM E-score” value is 0.0435.

On to GGAGGCTA, for which the “PBM E-score” value was -0.238.

Regarding CCCAAGGC, the “PBM E-score” value was -0.256.

Take GTTGGGTA: the “PBM E-score” value was -0.0431.

ATAATCGC: the “PBM E-score” value is 0.0907.

For the sequence CCAAAAAG, the “PBM E-score” value is -0.0574.

For GTGTTATA, the “PBM E-score” value is 0.184.

ACCACGGG: the “PBM E-score” value is -0.243.

Turning to AATTTTAC, the “PBM E-score” value was 0.312.

On to GCCCCCCC, for which the “PBM E-score” value is -0.4.

On to AATTAGCT, for which the “PBM E-score” value worked out at 0.108.

As for CTGCGGAA, the “PBM E-score” value is -0.197.

AGCGCGAA: the “PBM E-score” value worked out at 0.13.

For the sequence GATATTCA, the “PBM E-score” value was -0.0346.

In the case of AGGGTTCG, the “PBM E-score” value is -0.225.

With TCCTTGAA, the “PBM E-score” value is -0.114.

With ACGGATAT, the “PBM E-score” value amounted to 0.176.

For the sequence CCAGGTCC, the “PBM E-score” value is -0.402.

On to TATTGACA, for which the “PBM E-score” value amounted to 0.178.

For ACAGCCCT, the “PBM E-score” value was -0.259.

As to CGACATCG, the “PBM E-score” value came to 0.21.

On to GTTATCTA, for which the “PBM E-score” value turned out to be 0.113.

Consider CTCTCACC, for which the “PBM E-score” value is -0.0114.

For AACACCGT, the “PBM E-score” value is -0.165.

For GACCAGCA, the “PBM E-score” value was -0.185.

On to CCCTCTTA, for which the “PBM E-score” value is -0.154.

For CAACGTAC, the “PBM E-score” value is 0.326.

As for AAGGCTTG, the “PBM E-score” value was -0.0724.

In the case of CCAGCGGA, the “PBM E-score” value is -0.361.

Turning to ACTAAATA, the “PBM E-score” value was determined as 0.167.

For the sequence CGATAGCG, the “PBM E-score” value was -0.13.

On to ACGCATGC, for which the “PBM E-score” value was found to be 0.319.

Consider CTATAATA, for which the “PBM E-score” value is -0.0473.

As for AGGGGTAT, the “PBM E-score” value was -0.361.

For CAAGCATA, the “PBM E-score” value was 0.0343.

As to GTCGCGGA, the “PBM E-score” value was -0.288.

For the sequence AACATAGC, the “PBM E-score” value is -0.0664.

Consider CACATCCA, for which the “PBM E-score” value is 0.0329.

Regarding GCATAGGC, the “PBM E-score” value was -0.159.

In the case of ACGCCGTA, the “PBM E-score” value was 0.0587.

ACAACACT: the “PBM E-score” value amounted to 0.0913.

For CCAAATAC, the “PBM E-score” value worked out at 0.0904.

For CTCGGAAA, the “PBM E-score” value is -0.0573.

For CTTGCAGA, the “PBM E-score” value is -0.0456.

Consider GGATGTTA, for which the “PBM E-score” value is 0.0128.

In the case of GTAAAAGA, the “PBM E-score” value was determined as 0.242.

As to ACCAAAGT, the “PBM E-score” value was -0.00709.

For TTCCTCAA, the “PBM E-score” value is -0.0344.

ACAGCTGG: the “PBM E-score” value was -0.182.

CGAAGCAG: the “PBM E-score” value was -0.0386.

For AACCAGTG, the “PBM E-score” value is -0.162.

For GAAAGCGC, the “PBM E-score” value was -0.0196.

Take GAACCTTC: the “PBM E-score” value is -0.189.

Turning to CTAATTTA, the “PBM E-score” value stood at 0.261.

For CCTAGACG, the “PBM E-score” value was 0.134.

On to CACTGCAG, for which the “PBM E-score” value was -0.064.

For the sequence AGATTCGC, the “PBM E-score” value is 0.133.

Regarding ATACCACG, the “PBM E-score” value was 0.195.

Consider ATGGCGTG, for which the “PBM E-score” value turned out to be 0.336.

CGTGTACA: the “PBM E-score” value was determined as 0.319.

Regarding CACTTTAA, the “PBM E-score” value worked out at 0.14.

CCGCCGCG: the “PBM E-score” value was -0.187.

For the sequence ATCCTTTG, the “PBM E-score” value is -0.0173.

In the case of ACCTTTTA, the “PBM E-score” value is -0.0142.

Turning to GTATGCAC, the “PBM E-score” value worked out at 0.182.

As to CACTTTTC, the “PBM E-score” value amounted to 0.0153.

Consider GATCGGCC, for which the “PBM E-score” value is -0.132.

The values above are taken from the supplement of paper PMC3334620.
